# The supplement of paper PMC11417369
# This is one part of the list.
# System: PfAP2-HC AP2 domain (GST-tagged)
# Assay: gcPBM binding intensity (ln(normalized median fluorescence intensity)); higher = stronger DNA binding
# Procedure, shortened: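 Binding intensity values are the highest Masliner-normalised natural-log median intensity among replicate spots of either probe orientation. The binding step lasted 1 h in 1× PBS with 1% milk, 0.2 mg/ml BSA, 0.5% salmon testes DNA and 0.03% Triton X-100, using GST-tagged P. falciparum DNA-binding domains expressed in E. coli on an Agilent 4 × 180k array of primer-extended double-stranded 36-bp intergenic genomic probes plus negative controls. Alexa488 anti-GST antibody and a 488 nm scan detected bound protein.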
row,Sequence,gcPBM binding intensity (ln)
1,TTTTTTTTTTTTTTTTTTTTTTTATCTATTATTTAT [XGTACX_negctrl_site496],8.85
2,AAAAAATTAATATTGACACACATTTTTAAGAATAAT [CACACA_site239],9.7
3,AAACAAAAAATTTAAAGTACAAAAATTATGATTGTT [XGTACX_site465],9.62
4,AATATATAAATTAATACATGCACATATAGAAAGGGA [TGCATGCA_site472],10.3
5,CTTTTTACTTAATACACACACACACTAGAAAAAAAA [CACACA_site4680],10.7
6,TAAAAGGAAAAAAAAGCACACACAATATTACTTGAA [CACACA_site8831],10.4
7,TATCAAAATTAGTATACACACAAAATTATTCAAATA [CACACA_site2232],9.69
8,TATACATATAAATTGTGTACACATATATATATATTT [XGTACX_site7875],9.8
9,AACCAATATGTGTATACACACATAAATATAAATATA [CACACA_site7729],10
10,AAAAAAAAAAAAAGGTGTACATAAGTAAATTCATAT [XGTACX_site4206],9.88
11,CTTTTCTTTTTTTTTTGTACATAAAATTATTCCTTA [XGTACX_site3924],9.75
12,AATATAGTCACACATACACACATATAGATTTATATA [CACACA_site7223],10
13,TTTTGTTGCTCTTTTTTTTTTTTTTTTAACTGTATG [CACACA_negctrl_site1072],9.67
14,TTATTTTGTTTTAAAAGTACACACTTTTAATTAGAT [XGTACX_site2271],9.71
15,ATAATAAGCAAACACACACACACAAAAAAAAAAAAA [CACACA_site720],11.6
16,TATATAAACACGTACACACACATATAGGTATTTATA [CACACA_site7615],10.8
17,ACAGAATACATATACACACATACAAAAAAGTGCATA [CACACA_site987],10.3
18,TCATACTGTATATTTTGTACTTATATATATATTATA [XGTACX_site6136],10
19,CATTATGTTGTAAATGCACACATACATATACACAGT [CACACA_site8990],10
20,TTTGCTTCCAAAAGTCGTACAAAAAATATTAAATAT [XGTACX_site4171],9.3
21,TACAAAAGCGATACGGCACACATTTCCTGTTTAAAT [CACACA_site2746],9.82
22,AAAAGATTGCTCCGCATGCACCTCCAAAAGTTCCTT [GTGCAC_site9993],9.48

row,Sequence,gcPBM binding intensity (ln)
1,ATGAATGTCCCAAGATGTACAATTATATATAACACA [XGTACX_site4702],9.58
2,AAATCCTTATTTTTTTGTACGTAATATTTTATATGG [XGTACX_site1530],9.62
3,TAATAAATAAGACACACACACATATATATATATTAT [CACACA_site1389],10.3
4,GAGTAAAAATTAAAATGTACATATTATATATATTTA [XGTACX_site1319],9.58
5,AGTAAATAACACAAATATGAATGAAAAAAAAAATAT [GTGCAC_negctrl_site235],10.1
6,CAACTTATTAAAAGTCGTACAAATGGGAAGAAGGAA [XGTACX_site6325],9.66
7,TGTGCGGAAATAAGTGCACACATAGATATCTGTATT [CACACA_site5935],9.8
8,ATATATATATAGTACGCACACATAGTTGTACATTAA [CACACA_site2787],9.95
9,CGTATGAGTAAATACACACCCACGTATATATATAAA [CACACA_site5728],9.66
10,ATAATTATTAATATAGTGCATTGGCATAATAATATA [GTGCAC_site9810],9.7
11,ATATTAATATAATGTGCATGTTCAATGATCTTTTTA [TGCATGCA_site22],9.6
12,TTATACAACAAGAAAATTATAAAATGTAACATATAT [GTGCAC_negctrl_site406],9.57
13,TATTTTTTAACACAACGTACATATAAAAAATATTTA [XGTACX_site6025],9.43
14,TACAAATATATATGCACACACATATATGTATATGTG [CACACA_site3075],10
15,TTAGATATAATATATACACACCAACGAACGAAGAAA [CACACA_site4763],9.97
16,AAAAAAATTTATTAAAGTACTAGATAATCATATAAA [XGTACX_site1455],9.6
17,TTCTTTTCTCTTTTAATCATATTATATAAATGAATA [CACACA_negctrl_site820],9.53
18,ATATATAAAAAAGCTAGTACACAAAAATATATAATG [XGTACX_site3001],10.2
19,AAAAATTTTATATTCACACACATATTTATATTTATA [CACACA_site6439],9.96
20,AGAATAATATAATAAAGTACAAACCTATCTAACTAC [XGTACX_site5477],9.92
21,ATTATAAATAAATATTGTACTTATATGATCTATTTG [XGTACX_site3820],9.53
22,CCTTTCACATATAATACATGCATTATTATATATGAA [TGCATGCA_site287],9.49

row,Sequence,gcPBM binding intensity (ln)
1,GGATATATTATATGTACACACACATATAAGGGATTA [CACACA_site7884],9.99
2,ATTGCATTTGTAGATAATACAATATGGATTGTTATA [CACACA_negctrl_site1749],9.44
3,TCACAAATGTATTATACACACAAGTTTTCTTTAATA [CACACA_site4107],9.71
4,ATATTAACTTTTATTACACACTCTCAACTTTTATTT [CACACA_site6176],10.1
5,ATTTATTTATTTTCATGTACATATGTAAATCAATAA [XGTACX_site3886],9.64
6,TATATAATATAATGTAGTACATGTTTTATTTTTTAC [XGTACX_site7735],9.69
7,ATAAAATACAAAGGGACACACATATGAGTCTACAAA [CACACA_site3092],10.4
8,TAAACACATTATATATGTACATAATAAAAAAAAAAA [XGTACX_site7907],9.93
9,AAGTTATACACATCAACACACACATACAACGTGGTG [CACACA_site8312],10.4
10,CAAAATGATATGACAACACACAACCTATAGTAAGAC [CACACA_site1287],10.3
11,TAATATATAATAAAGTGTACATATGCTTTATTATTA [XGTACX_site1920],9.64
12,TGACGACATTTCTTATGTACTAATTTTTCTTCCTTT [XGTACX_site4391],9.68
13,TAAAAAAAGAAAAAAAGTACATGCTACTTTTATGAT [XGTACX_site7818],9.51
14,TATAATAAATCAAATGCACACACACTAATAAAAAAA [CACACA_site7937],11.3
15,GGAATATAAATACATACACACATATATATATATATA [CACACA_site4998],10.1
16,TATATATTATATATATGTACTTATTTATTAATTTAT [XGTACX_site5253],9.65
17,ATATAAAATAAATAAGTGCAGATAAATTTATGTGAC [GTGCAC_site9504],10.2
18,TGTGGTTTTTATAATTGTACATATATATAAATCTAT [XGTACX_site4766],9.77
19,TGTTGTTATAAAAAAAAAAAAAAAAAAAAAAAAAAA [GTGCAC_negctrl_site230],9.03
20,ATGAATATTTACAATCTTATTATGTTCAAAATTAAT [CACACA_negctrl_site592],9.4
21,TACATGCTTATTTTAACACACAAATGGTAGTAATAA [CACACA_site766],9.69
22,TGAATGCTTTTATGCACACGTACAAAAATATTATAT [CACACA_site2668],9.61

row,Sequence,gcPBM binding intensity (ln)
1,AATAAAAATAACCTAACATGCAAAAAAAAAAAAAAA [TGCATGCA_site718],9.42
2,GTCATTAAAAAAATATGTACTTAAATGTATGCATAT [XGTACX_site5951],9.56
3,TTTATACTTTCAAAATGTACATATATATATATATAT [XGTACX_site6241],9.77
4,ATTTCTCTATCGTAATGTACAAAAAAAAGGGAAAAG [XGTACX_site1335],9.61
5,ATTGAAGGGAAATATATAATCATATTCAAAATAAAA [CACACA_negctrl_site728],9.59
6,CTAATCATAAAATATACACACACGGATACATTAAAT [CACACA_site2685],10
7,TAATATATAATTTTATGTACATAATTATAAACCCAT [XGTACX_site919],9.57
8,CTTTTTACTTAATACACACACACACCCAAAAAAAAA [CACACA_site948],10.2
9,CATCAAAATGAAGCATGTACATAATATAAATAAATA [XGTACX_site4647],9.72
10,AAAAAATACCAAAGGGGTACTTACACATAATACTTA [XGTACX_site2111],9.68
11,TATGTATATTGAGATTGTACTTGTAATATTAAACAT [XGTACX_site3878],9.53
12,TTGTATAAAATATGTAGTACAATAATATAACATTTT [XGTACX_site8607],9.6
13,AATAATAAAAATATTGTGCACTTGTATATTTATTAT [GTGCAC_site9963],9.6
14,TTTTTTTTTTTTTTTTTTTTTTTCTACCTATTTATT [CACACA_negctrl_site94],8.87
15,GGTATTTTCACATATAGTACACAAAAATAAAATAAA [XGTACX_site2139],9.54
16,AAGGAATAAAATTTAGAAGACAATTTTATTTCAGTA [XGTACX_negctrl_site331],9.47
17,ATATCAAATAATTTAGTGCACTTTTTTTTTTCTTTT [GTGCAC_site9629],9.73
18,CTTTATATATATTGCGTGCACATTTTTTTTTTTTTT,10
19,GAAATAATAAAATCGACACACAAAAAAAAAAAAAAA [CACACA_site3476],9.59
20,CTATTTAAAATTTGAACACACATTATTTATTTTAAA [CACACA_site3114],9.49
21,AATAAATACAAAAATGTACACACATATATATATTTT [CACACA_site9167],9.85
22,TCAATATATATAAGAAGTACATGTGAATGAAAAAAA [XGTACX_site1674],9.69
